# Earlier results in paper PMC11006913.
# The other results are listed elsewhere or left out.
# Biological target: HOXD13 I322L (Homo sapiens) (UniProt P35453)
# Details: PBM; conditions not shown; double strand, one strand shown; scale: upbm affinity estimate (log intensity, higher = more binding, comparable within an allelic series)
# UniProt P35453, sequence (P35453 263-343 I322L): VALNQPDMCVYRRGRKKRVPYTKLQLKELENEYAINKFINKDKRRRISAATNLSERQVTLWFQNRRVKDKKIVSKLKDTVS
row,Sequence,binding signal
1,CTTGTTAA [8-mer CTTGTTAA],12.3
2,CTAGTTAA [8-mer CTAGTTAA],11.8
3,TAACGAGA [8-mer TAACGAGA],12.1
4,ATTTACAG [8-mer ATTTACAG],11.9
5,TCTTGTAA [8-mer TCTTGTAA],12
6,CGTAAATC [8-mer CGTAAATC],12
7,CGTTAAAC [8-mer CGTTAAAC],11.9
8,CATTTAAA [8-mer CATTTAAA],11.7
9,TGTAAAAA [8-mer TGTAAAAA],11.8
10,CCGTAAAA [8-mer CCGTAAAA],12.1
11,ATTAACAA [8-mer ATTAACAA],12
12,TAGTTAAA [8-mer TAGTTAAA],11.8
13,ATAGTAAA [8-mer ATAGTAAA],11.8
14,GCTTGTAA [8-mer GCTTGTAA],12
15,TATTACGA [8-mer TATTACGA],11.8
16,TTGTTAAA [8-mer TTGTTAAA],12.1
17,CGTAAAAA [8-mer CGTAAAAA],12
18,TGTCGTAA [8-mer TGTCGTAA],11.7
19,TAGTAAAA [8-mer TAGTAAAA],12
20,ATTTAACG [8-mer ATTTAACG],11.8

row,Sequence,binding signal
1,GTTAACGA [8-mer GTTAACGA],12.3
2,TGTTAAAA [8-mer TGTTAAAA],11.8
3,CCTTTAAA [8-mer CCTTTAAA],11.8
4,GTTAACAA [8-mer GTTAACAA],11.9
5,CTTAACGA [8-mer CTTAACGA],11.8
6,AGTTTACA [8-mer AGTTTACA],11.8
7,CCGTAAAC [8-mer CCGTAAAC],12
8,ATTTACTA [8-mer ATTTACTA],11.8
9,CCTTGTAA [8-mer CCTTGTAA],12.1
10,ATTTACGG [8-mer ATTTACGG],11.9
11,CGTAAAAC [8-mer CGTAAAAC],11.9
12,AATTACGA [8-mer AATTACGA],11.8
13,CTTTACAA [8-mer CTTTACAA],11.8
14,GTAGTAAA [8-mer GTAGTAAA],12
15,CAGTAAAA [8-mer CAGTAAAA],11.8
16,ATTTTACG [8-mer ATTTTACG],12
17,GTTTACAA [8-mer GTTTACAA],12.2
18,ATTTAACA [8-mer ATTTAACA],11.9
19,CATCGTAA [8-mer CATCGTAA],11.8
20,TGCGTAAA [8-mer TGCGTAAA],11.8
